Results reported in PubChem BioAssay AID686979 (National Center for Advancing Translational Sciences (NCATS), 2013).
Several values for one entry are separate records, joined by “and”; a condition that tells them apart may be missing. Identical values can stand only once. The campaign covered roughly 420,000 compounds. About 50,000 (12%) were called active. The shares of active, inactive and inconclusive entries below differ from those in the screen. Calls follow the shape of the dose curve; as a rule, active = well fitted inhibition curve with a large enough effect; inconclusive = small, poorly fitted or top-dose-only effect; inactive = flat fitted curve, though single readings scatter. No potency is given beside an inconclusive call; the fits are too rough.

test: qHTS for Inhibitors of human tyrosyl-DNA phosphodiesterase 1 (TDP1): qHTS in cells in presence of CPT; conditions: chicken DT40 Tdp1-/-;hTDP1 cells + 20 nM CPT, ATP luminescence, 48 h; series mostly up to 46.2 µM; also: nearly all actives have a fitted effect of over 55% in size
Method in brief: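 Cell growth measured by CellTiter-Glo luminescence after a minimum 48 h, 37 C compound exposure with 20 nM CPT in Tdp1-knockout DT40 cells stably expressing hTDP1, seeded 400/well; qHTS titration format.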
Potency is read from the fitted curve at half-maximal effect; tags tell the direction and shape of the fitted curve.

| SMILES | Potency |
| --- | --- |
| Cc1ccsc1C(=O)Nc1cc(C(C)(C)C)nn1-c1ccccc1 | inconclusive [inhibitor, partial curve] |
| CCOC(=O)N1CCC(NC(=O)C2CCCN(c3nc4ccccc4o3)C2)CC1 (stereo not given) | inactive |
| Cc1ccc(OCC(=O)N/N=C\c2cn(C)c3ccccc23)c([N+](=O)[O-])c1 | inconclusive [inhibitor, single point] |
| COc1ccc(OC)c(N(CC(=O)Nc2cccnc2)S(=O)(=O)c2ccc(OC)c(OC)c2)c1 | inconclusive [inhibitor, partial curve] |
| CC1=C(C(=O)OC2CCCCC2)C(c2ccc(C)o2)C2=C(CCCC2=O)N1 (stereo not given) | inconclusive [inhibitor, single point] |
| Cc1ccc(-c2c3c(nc4sc(C(N)=O)c(N)c24)CCCC3)o1 | inactive |
| Cc1cc(F)ccc1C(O)c1ncc(-c2ccc(Oc3ccccc3)cc2)[nH]1 (stereo not given) | active: 20.6 µM |
| COc1cc(NC(=O)c2cc(S(=O)(=O)N3CCC(C)CC3)cn2C)cc(OC)c1OC | inactive |
| COc1cc(O)ccc1-c1nc2cc(C)ccn2c1Nc1ccccc1C | active: 13 µM |
| NS(=O)(=O)c1ccc(NC(=S)NC2CCCCCC2)cc1 | inactive |
| O=C(c1ccc2ccccc2n1)N1CCN(S(=O)(=O)c2ccc(Cl)cc2)CC1 | inconclusive [inhibitor, single point] |
| O=C(NCC1CC1)c1cccc2c1C(=O)c1ccc(-c3ccc(OC(F)(F)F)cc3)cc1S2(=O)=O | active: 13 µM |
| CC(C)C[C@@H](C(=O)NC1CC1)N1C(=O)N2CCc3c([nH]c4ccccc34)[C@@]2(C)C1=O | inconclusive [inhibitor, single point] |
| N/C(CC(=O)Nc1ccc(F)cc1F)=N\OC(=O)c1cccs1 | inconclusive [inhibitor, single point] |
| CCC(Cc1ccccc1)NS(=O)(=O)c1ccc2c(c1)NC(=O)CS2 (stereo not given) | inconclusive [inhibitor, single point] |
| COc1ccc(CCC(C)NC2C3CC4CC(C3)CC2C4)cc1 (stereo not given) | inconclusive [inhibitor, partial curve] |
| Cc1ccc(O)c(Nc2c3ccccc3nc3ccccc23)c1 | active: 16.4 µM |
| CCOC(=O)[C@]12CCCC=C1N(CCC1=CCCCC1)C(=O)[C@H](CC(=O)NCC1CCCCC1)C2 | inconclusive [inhibitor, single point] |
| CCCCCCCCN1C(=O)[C@H](CC(=O)NCCc2ccccc2OC)C[C@@]2(C(=O)OCC)CCC=C12 | inconclusive [inhibitor, single point] |
| COc1ccc(NC(=O)CSc2nc3nc(C)cc(C)n3n2)cc1OC | inactive |
| O=C(Nc1cccc(F)c1)C1CCN(S(=O)(=O)c2ccc3[nH]c4c(c3c2)CCCCC4)CC1 | inconclusive [inhibitor, single point] |
| COCCn1nnnc1C(c1ccccc1Cl)N1CCN(c2ccccc2OC)CC1 (stereo not given) | inconclusive [inhibitor, single point] |
| COc1ccc(Oc2nc(-c3ccncc3)nc3ccccc23)cc1 | inactive |

| SMILES | Potency |
| --- | --- |
| COCCN(C(=O)COC(=O)/C=C/c1ccco1)c1c(N)n(Cc2ccccc2)c(=O)[nH]c1=O | inactive |
| c1ccc2c(NCCN3CCOCC3)nc(-c3ccoc3)nc2c1 | inactive |
| COc1ccc(NC(=O)C2CC(=O)n3cnnc3S2)cc1 (stereo not given) | active: 2.31 µM |
| O=C(/C=C/c1ccc(Cl)cc1Cl)N(Cc1ccc(Cl)cc1)C1CCS(=O)(=O)C1 (stereo not given) | inconclusive [inhibitor, partial curve, poor fit] |
| CCOC(=O)c1ccc(NC(=O)CCNC(=O)c2ccc([N+](=O)[O-])cc2)cc1 | inconclusive [inhibitor, partial curve] |
| CCc1ccc(S(=O)(=O)Nc2cccc(-c3ccc(OC)nn3)c2)s1 | active: 11.6 µM |
| CN1CCc2c(c3ccccc3n2Cc2ccccc2)C1 | active: 23.1 µM and active: 13 µM and active: 16.4 µM |
| CN1CCN(c2ncnc3c2ncn3[C@H]2CN(Cc3cccs3)C[C@@H](CO)O2)CC1 | inconclusive [inhibitor, partial curve] |
| COc1ccccc1CCn1cnc(Cc2ccccc2)c1C(C)C | active: 7.31 µM |
| CCOc1ccccc1NC(=O)NCc1noc2ccc(C)cc12 | inconclusive [inhibitor, single point] |
| O=C(NCC(c1ccco1)N1CCCCC1)c1cccnc1 (stereo not given) | inactive |
| COc1ccc(N2CCN(C(=O)COC(=O)Cc3c(F)cccc3Cl)CC2)cc1 | inconclusive [inhibitor, single point] |
| O=c1[nH]nnc2c1sc1nc(N3CCOCC3)c3c(c12)CCCC3 | inactive |
| CCc1nc2cccnc2n1-c1ccc(CC(=O)NC(C)CC)cc1 (stereo not given) | inactive |
| Fc1ccc(C(c2ccc(F)cc2)N2CCN(C/C=C/c3ccccc3)CC2)cc1 | active: 5.31 µM and active: 3.66 µM |
| CCCn1c(N)c(C(=O)CSc2nc(C)cs2)c(=O)[nH]c1=O | inconclusive [inhibitor, partial curve] |
| O=C(c1ccc(-c2ccccc2)cc1)c1ccccc1C(=O)N1CCOCC1 | inconclusive [inhibitor, single point] |
| O=C(NCc1ccccc1)C(c1ccc(F)cc1)N1CCN(C(=O)C2CCCO2)CC1 (stereo not given) | inconclusive [inhibitor, full curve, poor fit] |
| O=C1C(c2ccccc2)=NCCN1C(c1ccc(F)cc1)c1nc2ccccc2[nH]1 (stereo not given) | inconclusive [inhibitor, single point] |
| CCOC(=O)c1ccc(NC(=O)c2nc[nH]c2C(=O)N[C@H](C)c2ccccc2)cc1 | inconclusive [inhibitor, single point] |
| Nc1ccccc1C(=O)NNC1=C(C(=O)C(F)(F)F)CCC1 | active: 4.11 µM |
| COc1cc(OC)cc(-c2c(-c3cccs3)c3cc(-c4cnc(N)nc4)ccc3n2C)c1 | active: 23.1 µM |
